Reference: PubChem BioAssay AID720536 (National Center for Advancing Translational Sciences (NCATS), 2013)
The whole screen tested about 1,600 compounds, of which about 650 (41%) were called active. So high a share suggests a set chosen from earlier hits. Inconclusive results, whose numbers are uncertain, are shown with a selection of clear calls. Calls follow the shape of the dose curve; as a rule, active = well fitted inhibition curve with a large enough effect; inconclusive = small, poorly fitted or top-dose-only effect; inactive = no such curve, though single readings can be large or run the other way. No potency is given beside an inconclusive call; the fits are too rough.

experiment: qHTS for Inhibitors of TGF-b: CCL64 Cells Orthogonal Assay for Cherry Picks; details: CCL64 CAGA-GFP reporter, TGF-b stimulated, GFP fluorescence, 18 h; activity, negative = inhibition: at 46.1 µM (top of the series); also: nearly all actives have a fitted effect of over 65% in size
Description: TGF-b is a main component in the TGF-b signaling pathway which plays diverse roles in cellular and development pathways. TGF-b is the mediated by the transcription factors Smads. Although the Smad-dependent pathway is the primary canonical TGF-b signaling node, TGF-b1 can also activate alternative signaling pathways, including those involving MAPK (ERK, JNK and p38). This interaction may mediate or enhance Smad-dependent responses, or can exert Smad-independent effects. The complexity of this signaling cascade allows the TGF-b superfamily to perform unique, overlapping or redundant functions. We believe that targeting the TGF-beta pathway at the Smad-transcription factor level may eliminate the consequences of disrupting the entire pathway and offer specificity without affecting other signaling pathways. Smad3 is the primary transducer of TGF-b's signals and Smad3 regulates many functions attributed to TGF-b signaling. We hypothesize that Smad3 inhibitors will selectively eliminate Smad3-specific TGF-beta signals without undesired off-target effects. We aim to identify Smad3-small molecule antagonists using a quantitative high throughput screening (qHTS) approach. A high-throughput assay was developed to screen the NIH Molecular Libraries Small Molecule Repository (MLSMR). This is a cell based assay, where TGF-b is tagged with GFP. This orthogonal assay was run using CCL64 cells (as opposed to HepG2); activity was desired in this assay as this indicated the hits identified from the screen are not a cell-based artifact. MH087449NIH Chemical Genomics Center [NCGC] NIH Molecular Libraries Probe Centers Network [MLPCN] MLPCN Grant: MH087449 Assay Submitter (PI): Sushil Rane, National Institute of Diabetes and Kidney Diseases
Suspensions of trypsinized CCL64 CAGA-GFP cells were dispensed into white, tissue culture-treated, solid 1536-well plates at 5uL/well (1000 cells/well final concentration) in DMEM medium supplemented with 1% FBS. Plates were incubated at 37 degrees C for 2 hours, after which 23 nL of compounds or DMSO were delivered to each well using a pin tool. One uL of recombinant TGF-beta in DMEM (1% FBS) was then dispensed (500 pg/mL final concentration), and plates were incubated at 37 degrees C for 18 hours. The plates were measured on an Acumen eX3 Explorer plate reader for GFP fluorescence (ex488/em500-530). GFP values were calculated by determining the mean GFP fluorescence of individual cells, and compiling these values for each well to determine a total well GFP signal. The %Activity was determined from the corrected fluorescence values. A titration of the known TGF-B inhibitor SB431542 was included to monitor plate performance, while unstimulated […] (-TGF-B) control wells were used to normalize %Activity of identified inhibitors; unstimulated wells corresponded to 100%Activity (full inhibition), while stimulated cell controls (+DMSO) were used to normalize 0%Activity (no inhibition). Concentration-response curves were fitted to the signals arising from the resulting fluorescence. The concentration-effect curves were then classified based on curve quality (r2), response magnitude and degree of measured activity, and compounds were subsequently categorized based on their curve class.
Potency is read from the fitted curve at half-maximal effect; tags tell the direction and shape of the fitted curve.

| Compound | Potency | activity, negative = inhibition |
| --- | --- | --- |
| C=C1C2=C(C(=O)N1OC)[C@@H](O)[C@@](C)(O)[C@@H](CCCCC)O2 | inactive | – |
| O=C(Nc1ccc(N2CCOCC2)cc1)c1ccc([N+](=O)[O-])o1 | inconclusive [inhibitor, single point] | – |
| COc1ccc(NS(=O)(=O)c2cc(NC(=O)CNC(=O)c3cccc(OC)c3)ccc2C)cc1 | inconclusive [inhibitor, full curve] | – |
| O=C(Nc1ccccn1)c1ccc([N+](=O)[O-])o1 | inconclusive [inhibitor, full curve, poor fit] | – |
| Cc1ccc(-c2c(C(=O)NCc3ccc(F)cc3)oc(=O)c3ccccc23)cc1 | inactive | – |
| Cc1cc(Cl)c(S(=O)(=O)N2CCN(c3ccccn3)CC2)cc1OCC(=O)NC1CCCCC1 | inactive | – |
| COC(=O)c1ccc2nc(-c3ccco3)c(Cc3cccc(F)c3)n2c1 | inconclusive [inhibitor, single point] | – |
| C[C@]12c3[nH]c4cc(-c5ccco5)ccc4c3CCN1C(=O)[C@@H](CC(=O)NCCc1ccccn1)C[C@@H]2C(=O)N1CCCCC1 | inactive | – |
| O=S(=O)(NCCOc1ccccc1Cl)c1ccc2oc3ccccc3c2c1 | inconclusive [inhibitor, single point] | – |
| Oc1ccc(C[C@H]2CNC(=S)N2CC2CCCN2C[C@H](Cc2ccc(O)cc2)N2C[C@H](Cc3ccc(O)cc3)N(CC3CCCCC3)C2=S)cc1 (stereo not given in full) | active: 5.8 µM | – |
| COc1ccc(-c2cc(-c3c(O)c(OC)c4occc4c3OC)[nH]n2)cc1OC | inconclusive [inhibitor, single point] | – |
| COc1ccc(-c2c/c(=N\c3nc(-c4ccccc4)c(C)s3)c3ccccc3o2)cc1O | active: 4.11 µM | – |
| CCOc1nc(N=C(N)N)nc2c(C)cccc12 | inactive | – |
| O=c1c2ccccc2c(=O)n(Cc2ccccc2)n1Cc1ccccc1 | active: 18.4 µM | – |
| Oc1c(C(c2ccccc2Cl)N2CCCC2)ccc2cccnc12 (stereo not given) | inconclusive [inhibitor, single point] | – |
| O=C(Nc1cccc(Cl)c1)Nc1nnc(-c2ccncc2)s1 | active: 6.51 µM | – |
| CC(C)(C)c1ccc(Cn2cnc(-c3ccc([N+](=O)[O-])cc3)c2)cc1 | inconclusive [inhibitor, single point] | – |
| Cc1ccc(SC[C@H](C)CN2CC[C@H](C(C)(C)C)CCC2=O)cc1 | active: 20.6 µM | – |
| Cc1nc(N=C(N)N)nc2ccccc12 | inactive | – |
| Cc1ccc(S(=O)(=O)Nc2cccc3c2O[C@H](CN(C)Cc2ccc(-c4ccccc4)cc2)[C@@H](C)CN([C@H](C)CO)C3=O)cc1 | inconclusive [inhibitor, single point] | – |
| Cc1ccc(C(=O)C2CCN(CC(=O)Nc3nc(C)cs3)CC2)cc1 | inactive | – |
| COc1ccc(Nc2nc(N3CCCC3)nc3ccccc23)c(OC)c1 | inconclusive [inhibitor, partial curve, poor fit] | – |

| Compound | Potency | activity, negative = inhibition |
| --- | --- | --- |
| Cc1cccc(CCNC(=O)c2cccc3c2C(=O)N(C2CCCCC2)C3)c1 | inconclusive [inhibitor, single point] | – |
| Nc1nn(S(=O)(=O)c2ccccc2)cc1-c1ccc([N+](=O)[O-])cc1 | inactive | – |
| CCC(=O)NC(Nc1sc2c(c1C(=O)OC)CCC2)C(Cl)(Cl)Cl (stereo not given) | inconclusive [inhibitor, single point] | – |
| O=C(Nc1ccc([N+](=O)[O-])cc1)Nc1ccon1 | inconclusive [inhibitor, single point] | – |
| COc1ccc(OC)c(CN2CCCC(C(=O)c3ccccc3SC)C2)c1 (stereo not given) | inconclusive [inhibitor, single point] | – |
| COC(=O)[C@@]1(Cc2ccccc2)[C@H]2C(=O)N(Cc3ccccc3)C(=O)[C@H]2[C@H]2CN=C(SCC3CC3)N21 | inconclusive [inhibitor, single point] | – |
| O=C(N/N=C/c1ccccc1O)c1cccc2ccccc12 | inconclusive [inhibitor, full curve] | – |
| Clc1ccccc1Nc1nc(-c2ccncc2)nc2ccccc12 | inconclusive [inhibitor, partial curve] | – |
| O=C(c1ccc([N+](=O)[O-])s1)N1CCc2ccccc2C1 | inconclusive [inhibitor, partial curve, poor fit] | – |
| COc1cc2c(cc1OC)C(C)N(C(=O)c1cc3c(C)cc(C)cc3[nH]1)CC2 (stereo not given) | inconclusive [inhibitor, single point] | – |
| O=C(c1cc(-c2ccccc2Cl)nc2ccc(Br)cc12)N1CCN(c2ccccn2)CC1 | inconclusive [inhibitor, single point] | – |
| C[C@]12c3[nH]c4cc(-c5ccco5)ccc4c3CCN1C(=O)[C@@H](CC(=O)NCCC1=CCCCC1)C[C@@H]2C(=O)N1CCOCC1 | inconclusive [inhibitor, single point] | – |
| COc1ccc2c(c1OC)C(=O)OC2Nc1nc(-c2ccc(-c3ccccc3)cc2)cs1 (stereo not given) | inconclusive [inhibitor, single point] | – |
| COc1ccc(-c2nc3ccc(Br)cn3c2Cc2cccc(Cl)c2)cc1OC | inconclusive [inhibitor, single point] | – |
| CCOc1ccccc1CNC(=O)c1ccc(Sc2ccc(Cl)cc2)c(NC(C)=O)c1 | inconclusive [inhibitor, single point] | – |
| OCc1ccc(-c2nn(Cc3ccccc3)c3ccccc23)o1 | inconclusive [inhibitor, single point] | – |
| O=C(Nc1ccc(Cl)cc1)Nc1nnc(/C=C/c2ccccc2)s1 | inconclusive [inhibitor, partial curve] | – |
| O=C(c1cc(-c2ccccc2)n[nH]1)N1CCc2c([nH]c3ccccc23)C1c1ccccn1 (stereo not given) | inconclusive [inhibitor, partial curve, poor fit] | – |
| COC(=O)c1ccc(CNC(=O)CSc2nnc(COc3ccccc3)n2C)o1 | inactive | – |
| Cc1ccc(CN2CC(N3CCC(Cc4ccccc4)CC3)CS2(=O)=O)cc1 (stereo not given) | inactive | – |
| Cc1cc(S(=O)(=O)c2ccc(Cl)cc2)nc(S(=O)(=O)c2ccc(Cl)cc2)c1C#N | active: 1.84 µM | – |
| Cc1ccc(Cl)cc1N1CCN(C(=O)c2cc3c(=O)[nH]c4ccccc4c3n2C)CC1 | inactive | – |

| Compound | Potency | activity, negative = inhibition |
| --- | --- | --- |
| Cc1ccc(S(=O)(=O)N2CCN(CCc3ccccc3)CC2)c(C)c1 | inconclusive [inhibitor, partial curve, poor fit] | – |
| CCC(C)NS(=O)(=O)c1ccc(NC(=O)C(Sc2ccccc2)c2ccccc2)cc1 (stereo not given) | inconclusive [inhibitor, single point] | – |
| COc1ccc(C2=NNC(=Nc3cc(S(=O)(=O)N(C)C)ccc3C)SC2)c(OC)c1 | inconclusive [inhibitor, single point] | – |
| Cc1ccc(S(=O)(=O)N2CCCCC2)cc1C(=O)OC1CCCCC1=O (stereo not given) | inactive | – |
| O=C(C[C@@H]1C/C=C\C[C@@H](Cc2ccc(F)cc2)C(=O)OC[C@@H](Cc2ccccc2)NC1=O)N[C@H](CO)Cc1ccccc1 | inactive | – |
| OC(CNCC(c1ccc(Cl)cc1Cl)c1c[nH]c2ccccc12)c1ccccc1 (stereo not given) | inconclusive [inhibitor, single point] | – |
| CCOC(=O)c1ccc(-n2[nH]c(-c3ccccc3)cc2=O)cc1 | inconclusive [inhibitor, single point] | – |
| NC(=O)CC(NC(=O)Cc1cccc2ccccc12)c1ccc(N2CCc3ccccc3C2)c([N+](=O)[O-])c1 (stereo not given) | inconclusive [inhibitor, single point] | – |
| COC(=O)c1[nH]c2c(c1C)C(=O)CC(c1ccccc1)C2 (stereo not given) | – | inconclusive: -34.9% [inhibitor] |
| COc1ccc(CN2CCN(c3ncnc4scc(-c5ccc(F)cc5)c34)CC2)cc1 | inconclusive [inhibitor, single point] | – |
| COc1cccc(C2C3=C(N=c4s/c(=C\c5cccc(O)c5)c(=O)n42)c2ccccc2CC3)c1OC (stereo not given) | active: 2.91 µM | – |
| O=C(c1ccco1)N1CCCC(c2nc(-c3ccc(S(=O)(=O)NCc4ccccc4)cc3)no2)C1 (stereo not given) | inactive | – |
| CCC1Oc2ccc(C)cc2N(CC(=O)N(Cc2ccc(C)o2)C2CCCC2)C1=O (stereo not given) | inconclusive [inhibitor, single point] | – |
| CSc1ccccc1NC(=O)C(C)N(C)CC(=O)N1CCN(Cc2ccccc2)CC1 (stereo not given) | inactive | – |
| CN(C)S(=O)(=O)c1ccc(Cl)c(NC(=O)CN2CCC(Cc3ccccc3)CC2)c1 | inconclusive [inhibitor, partial curve, poor fit] | – |
| CCOc1ccc(CCN2C(=S)N([C@@H](Cc3ccc(O)cc3)CN3CCC[C@@H]3CN3C(=S)NC[C@@H]3CC(C)C)C[C@@H]2Cc2ccccc2)cc1 | inconclusive [inhibitor, partial curve, poor fit] | – |
| O=[N+]([O-])c1cc2c(c3cccnc13)COCO2 | inactive | – |
| CCc1ccc(CCC(=O)Nc2ncc(Cc3ccccc3Cl)s2)o1 | inactive | – |
| Cc1nnc(Sc2cc(NCCCO)c([N+](=O)[O-])c3nonc23)s1 | active: 3.26 µM | – |
| Cc1ccc(Nc2nc(-c3cccnc3)nc3ccccc23)cc1 | inconclusive [inhibitor, single point] | – |
| O=C(c1ccco1)N1CCN(c2ncnc3scc(-c4ccc(F)cc4)c23)CC1 | inactive | – |
